Where two headings read alike, the source gives them in different places. Values belong to the binder of their own block, whether it stands above or below them.
Key:
[1] = molecular target: T1, IGFBP3 (rhIGFBP3, R&D, #675-B3-025) (human, UniProt P17936); assay: SPR (BIAcore #a); rhIGFBP3 immobilized, IGF1 variant injected
T1 construct: Bought reagent, immobilized on the BIAcore sensor surface

[2] = molecular target: T1, IGFBP3 (rhIGFBP3, R&D, #675-B3-025); assay: SPR (BIAcore #c); rhIGFBP3 immobilized, IGF1 variant injected
T1 sequence (P17936 28-291 limits assumed): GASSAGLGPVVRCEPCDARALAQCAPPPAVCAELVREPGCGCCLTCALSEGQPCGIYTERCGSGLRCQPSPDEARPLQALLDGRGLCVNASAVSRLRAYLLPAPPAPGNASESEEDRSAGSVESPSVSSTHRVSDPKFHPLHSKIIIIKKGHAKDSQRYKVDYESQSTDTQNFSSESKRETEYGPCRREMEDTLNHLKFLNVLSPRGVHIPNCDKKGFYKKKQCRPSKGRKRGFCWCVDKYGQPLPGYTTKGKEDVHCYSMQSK

[3] = molecular target: T1, IGFBP3 (rhIGFBP3, R&D, #675-B3-025); assay: SPR (BIAcore); one figure told of MOD-1301-4 and MOD-1301-5 together
[4] = molecular target: T1, IGFBP3 (rhIGFBP3, R&D, #675-B3-025); assay: SPR (BIAcore), average KD against Increlex
[5] = molecular target: T2, recombinant IGF1 receptor fused to one fragment of beta-galactosidase, over expressed on cells (DISCOVERX … (UniProt P08069 31-1367)); assay: cell-based or functional assay
T2 sequence (P08069 31-1367): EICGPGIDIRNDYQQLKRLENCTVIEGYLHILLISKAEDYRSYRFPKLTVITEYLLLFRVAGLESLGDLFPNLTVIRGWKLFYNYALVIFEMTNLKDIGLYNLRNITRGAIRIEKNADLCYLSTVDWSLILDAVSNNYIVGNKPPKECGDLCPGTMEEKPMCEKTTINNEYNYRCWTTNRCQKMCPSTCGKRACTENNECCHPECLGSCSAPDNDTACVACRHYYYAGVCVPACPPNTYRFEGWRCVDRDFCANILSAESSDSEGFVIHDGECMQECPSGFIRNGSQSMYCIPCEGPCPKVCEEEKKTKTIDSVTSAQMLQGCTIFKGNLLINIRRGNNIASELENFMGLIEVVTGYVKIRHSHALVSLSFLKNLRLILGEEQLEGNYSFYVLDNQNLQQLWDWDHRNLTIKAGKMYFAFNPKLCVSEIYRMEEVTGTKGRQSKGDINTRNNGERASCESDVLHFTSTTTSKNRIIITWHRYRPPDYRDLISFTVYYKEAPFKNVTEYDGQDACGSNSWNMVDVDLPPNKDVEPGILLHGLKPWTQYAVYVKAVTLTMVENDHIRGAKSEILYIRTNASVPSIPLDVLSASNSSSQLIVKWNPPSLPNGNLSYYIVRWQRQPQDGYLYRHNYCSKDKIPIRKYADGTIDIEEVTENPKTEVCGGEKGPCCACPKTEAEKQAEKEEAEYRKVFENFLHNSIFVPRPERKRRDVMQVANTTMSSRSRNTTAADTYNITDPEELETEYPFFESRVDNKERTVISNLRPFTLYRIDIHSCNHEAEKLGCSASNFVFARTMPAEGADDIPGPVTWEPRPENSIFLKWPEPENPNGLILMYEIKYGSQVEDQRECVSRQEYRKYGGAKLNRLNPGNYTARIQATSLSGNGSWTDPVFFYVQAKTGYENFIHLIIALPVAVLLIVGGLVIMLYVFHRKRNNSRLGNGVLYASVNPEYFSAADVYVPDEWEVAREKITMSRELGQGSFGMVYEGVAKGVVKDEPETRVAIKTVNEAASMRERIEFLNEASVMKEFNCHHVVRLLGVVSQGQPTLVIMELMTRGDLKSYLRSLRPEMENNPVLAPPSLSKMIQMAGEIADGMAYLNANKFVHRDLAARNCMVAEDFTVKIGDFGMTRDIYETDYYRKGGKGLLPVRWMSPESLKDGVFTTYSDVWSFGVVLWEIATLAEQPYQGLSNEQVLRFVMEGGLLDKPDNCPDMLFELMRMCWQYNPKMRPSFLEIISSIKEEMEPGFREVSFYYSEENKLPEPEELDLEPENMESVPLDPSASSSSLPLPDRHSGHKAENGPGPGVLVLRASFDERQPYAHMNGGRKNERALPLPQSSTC

[6] = molecular target: T1, IGFBP3 (rhIGFBP3, R&D, #675-B3-025); assay: SPR (BIAcore #b); rhIGFBP3 immobilized, IGF1 variant injected
[7] = molecular target: T1, IGFBP3 (rhIGFBP3, R&D, #675-B3-025); assay: SPR (BIAcore), average; rhIGFBP3 immobilized, IGF1 variant injected
[8] = molecular target: T3, insulin receptor (cell based assay) (UniProt P06213); assay: cell-based or functional assay
[9] = molecular target: T2, recombinant IGF1 receptor fused to one …; assay: cell-based or functional assay; remark: listed apart in the source
[10] = molecular target: T2, recombinant IGF1 receptor fused to one …; assay: cell-based or functional assay; remark: listed apart in the source
[11] = molecular target: T3, insulin receptor (cell based assay); assay: cell-based or functional assay; remark: listed apart in the source
T3 sequence (P06213 28-1382 limits assumed): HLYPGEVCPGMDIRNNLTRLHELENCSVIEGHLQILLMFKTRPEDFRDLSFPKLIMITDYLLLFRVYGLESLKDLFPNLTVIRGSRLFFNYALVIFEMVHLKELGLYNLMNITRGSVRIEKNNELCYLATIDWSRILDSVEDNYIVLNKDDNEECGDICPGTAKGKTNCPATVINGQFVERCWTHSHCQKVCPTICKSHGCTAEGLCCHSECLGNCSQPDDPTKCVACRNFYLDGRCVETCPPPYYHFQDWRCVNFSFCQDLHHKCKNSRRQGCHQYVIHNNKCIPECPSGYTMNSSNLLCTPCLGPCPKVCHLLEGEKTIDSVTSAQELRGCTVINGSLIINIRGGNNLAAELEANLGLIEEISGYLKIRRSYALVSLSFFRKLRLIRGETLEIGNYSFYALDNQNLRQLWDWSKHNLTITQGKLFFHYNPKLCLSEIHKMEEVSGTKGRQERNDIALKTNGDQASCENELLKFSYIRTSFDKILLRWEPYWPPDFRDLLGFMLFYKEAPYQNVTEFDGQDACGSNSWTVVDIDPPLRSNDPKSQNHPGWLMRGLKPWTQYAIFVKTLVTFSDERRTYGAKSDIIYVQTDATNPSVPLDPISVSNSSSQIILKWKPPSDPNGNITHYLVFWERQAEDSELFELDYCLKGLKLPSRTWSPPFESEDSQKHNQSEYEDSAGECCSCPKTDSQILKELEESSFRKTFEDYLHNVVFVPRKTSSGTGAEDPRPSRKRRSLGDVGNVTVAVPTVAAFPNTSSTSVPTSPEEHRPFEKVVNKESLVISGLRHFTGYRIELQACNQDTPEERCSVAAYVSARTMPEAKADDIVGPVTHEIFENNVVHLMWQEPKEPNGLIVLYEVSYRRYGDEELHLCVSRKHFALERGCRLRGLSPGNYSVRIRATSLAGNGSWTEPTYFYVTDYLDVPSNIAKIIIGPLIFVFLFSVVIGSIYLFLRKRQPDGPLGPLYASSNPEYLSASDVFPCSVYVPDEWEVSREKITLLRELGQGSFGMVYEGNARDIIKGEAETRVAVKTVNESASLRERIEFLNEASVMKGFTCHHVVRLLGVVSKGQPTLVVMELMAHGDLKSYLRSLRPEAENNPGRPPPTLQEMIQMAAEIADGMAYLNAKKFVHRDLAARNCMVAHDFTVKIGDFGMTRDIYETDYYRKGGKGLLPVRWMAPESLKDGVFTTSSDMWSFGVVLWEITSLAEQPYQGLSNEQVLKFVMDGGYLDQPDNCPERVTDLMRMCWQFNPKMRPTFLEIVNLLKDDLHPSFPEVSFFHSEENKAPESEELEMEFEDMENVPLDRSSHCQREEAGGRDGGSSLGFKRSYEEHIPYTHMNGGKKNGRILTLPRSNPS

[12] = molecular target: T3, insulin receptor (cell based assay); assay: cell-based or functional assay; remark: listed apart in the source

B2: MOD-1301-1 (CTPx3-IGF1) (ligand)
chain: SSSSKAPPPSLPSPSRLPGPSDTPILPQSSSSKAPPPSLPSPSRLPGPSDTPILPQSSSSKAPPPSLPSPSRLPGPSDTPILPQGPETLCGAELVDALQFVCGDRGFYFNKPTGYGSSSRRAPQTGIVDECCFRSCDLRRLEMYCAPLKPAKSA
notes: Active (mature) protein without the hGH signal peptide; also called V1
- Kd [1]: 4.07 nM
- Kd [2]: 1.98 nM
- Fold reduction, as compared to Increlex [4]: 15.3 fold
- Average EC50 (PathHunter IGF1R bioassay) [5]: 6.2 nM
- Average fold reduction, as compare to Increlex [5]: 13.3 fold
- EC50, CBA#1 (PathHunter IGF1R bioassay) [5]: 5.76 nM
- EC50, CBA#2 (PathHunter IGF1R bioassay) [5]: 4.32 nM
- EC50, CBA#3 (PathHunter IGF1R bioassay) [5]: 6.6 nM
- EC50, CBA#5 (PathHunter IGF1R bioassay) [5]: 8.14 nM
- Kd [6]: 2.57 nM
- Kd [7]: 2.87 nM

B4: MOD-1301-3 (IGF1-CTPx3) (ligand)
chain: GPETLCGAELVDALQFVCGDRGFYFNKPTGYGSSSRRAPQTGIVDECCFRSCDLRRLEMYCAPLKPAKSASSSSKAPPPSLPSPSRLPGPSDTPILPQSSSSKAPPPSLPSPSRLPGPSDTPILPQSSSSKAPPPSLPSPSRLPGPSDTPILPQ
notes: Active (mature) protein without signal peptide and first propeptide; also called V3; variant 3
- Kd [1]: 4.08 nM
- Average EC50, insulin receptor CBA (selected clones) [8]: 224 nM
- EC50, insulin receptor CBA #4.1 (selected clones) [8]: 260 nM
- EC50, insulin receptor CBA #4.2 (selected clones) [8]: 258 nM
- EC50, insulin receptor CBA #5.1 (selected clones) [8]: 170 nM
- EC50, insulin receptor CBA #5.2 (selected clones) [8]: 208 nM
- Fold reduction (insulin receptor CBA) [8]: 7.9 fold
- Kd [2]: 1.39 nM
- Average EC50 (IGF1R CBA, selected clones) [9]: 1.82 nM
- Average fold reduction, as compare to Increlex [9]: 2.67 fold
- EC50, CBA #8.1 (IGF1R CBA, selected clones) [9]: 1.9 nM
- EC50, CBA #8.2 (IGF1R CBA, selected clones) [9]: 1.76 nM
- EC50, CBA #9.1 (IGF1R CBA, selected clones) [9]: 1.88 nM
- EC50, CBA #9.2 (IGF1R CBA, selected clones) [9]: 1.76 nM
- Fold reduction, as compared to Increlex [4]: 12.8 fold
- Average EC50 (nM), IGF-1 receptor stimulation (cell based assay) [10]: 1.82 nM
- Average EC50 (nM), insulin receptor stimulation (cell based assay) [11]: 224 nM
- Ratio (EC50 Insulin receptor/EC50 IGF-1 receptor) [11]: 123
- Average EC50 (PathHunter IGF1R bioassay) [5]: 5.23 nM
- Average fold reduction, as compare to Increlex [5]: 11.2 fold
- EC50, CBA#1 (PathHunter IGF1R bioassay) [5]: 5.78 nM
- EC50, CBA#2 (PathHunter IGF1R bioassay) [5]: 3.86 nM
- EC50, CBA#3 (PathHunter IGF1R bioassay) [5]: 5.75 nM
- EC50, CBA#5 (PathHunter IGF1R bioassay) [5]: 5.52 nM
- Kd [6]: 1.72 nM
- Kd [7]: 2.4 nM
- Affinity fold reduction vs Increlex [12]: 13.4 fold
- Average EC50 (nM), insulin receptor CBA [12]: 200 nM
- EC50 (nM), insulin receptor CBA, single run [12]: 199 nM
- EC50 (nM), insulin receptor CBA, single run (1st value column) [12]: 212 nM
- EC50 (nM), insulin receptor CBA, single run (2nd value column) [12]: 82.7 nM
- EC50 (nM), insulin receptor CBA, single run (3rd value column) [12]: 164 nM
- EC50 (nM), insulin receptor CBA, single run (5th value column) [12]: 340 nM

B5: MOD-1301-2 (IGF1-CTPx4) (ligand)
chain: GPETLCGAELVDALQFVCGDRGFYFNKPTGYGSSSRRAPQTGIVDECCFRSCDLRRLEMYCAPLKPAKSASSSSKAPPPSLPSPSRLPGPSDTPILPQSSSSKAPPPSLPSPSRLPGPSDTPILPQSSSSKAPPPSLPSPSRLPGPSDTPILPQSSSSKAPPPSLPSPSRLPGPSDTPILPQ
notes: Active (mature) protein without signal peptide and first propeptide; also called V2; variant 2
- Kd [1]: 2.56 nM
- Average EC50, insulin receptor CBA (selected clones) [8]: 387 nM
- EC50, insulin receptor CBA #4.1 (selected clones) [8]: 509 nM
- EC50, insulin receptor CBA #4.2 (selected clones) [8]: 430 nM
- EC50, insulin receptor CBA #5.1 (selected clones) [8]: 314 nM
- EC50, insulin receptor CBA #5.2 (selected clones) [8]: 296 nM
- Fold reduction (insulin receptor CBA) [8]: 13.7 fold
- Kd [2]: 1.33 nM
- Average EC50 (IGF1R CBA, selected clones) [9]: 2.41 nM
- Average fold reduction, as compare to Increlex [9]: 3.53 fold
- EC50, CBA #8.1 (IGF1R CBA, selected clones) [9]: 2.39 nM
- EC50, CBA #8.2 (IGF1R CBA, selected clones) [9]: 1.63 nM
- EC50, CBA #9.1 (IGF1R CBA, selected clones) [9]: 2.64 nM
- EC50, CBA #9.2 (IGF1R CBA, selected clones) [9]: 2.98 nM
- Fold reduction, as compared to Increlex [4]: 9.9 fold
- Average EC50 (nM), IGF-1 receptor stimulation (cell based assay) [10]: 2.41 nM
- Average EC50 (nM), insulin receptor stimulation (cell based assay) [11]: 387 nM
- Ratio (EC50 Insulin receptor/EC50 IGF-1 receptor) [11]: 161
- Average EC50 (PathHunter IGF1R bioassay) [5]: 4.21 nM
- Average fold reduction, as compare to Increlex [5]: 9 fold
- EC50, CBA#1 (PathHunter IGF1R bioassay) [5]: 4.38 nM
- EC50, CBA#2 (PathHunter IGF1R bioassay) [5]: 2.63 nM
- EC50, CBA#3 (PathHunter IGF1R bioassay) [5]: 5.62 nM
- EC50, CBA#5 (PathHunter IGF1R bioassay) [5]: 4.22 nM
- Kd [6]: 1.67 nM
- Kd [7]: 1.85 nM
- Affinity fold reduction vs Increlex [12]: 19.5 fold
- Average EC50 (nM), insulin receptor CBA [12]: 292 nM
- EC50 (nM), insulin receptor CBA, single run [12]: 177 nM
- EC50 (nM), insulin receptor CBA, single run (1st value column) [12]: 238 nM
- EC50 (nM), insulin receptor CBA, single run (2nd value column) [12]: 514 nM
- EC50 (nM), insulin receptor CBA, single run (3rd value column) [12]: 200 nM
- EC50 (nM), insulin receptor CBA, single run (5th value column) [12]: 332 nM

The next lines start with the values.

- Kd [1]: 4.94 nM
- Kd [2]: 2.53 nM
- times less affinity than Increlex [3]: ~21 fold
- Fold reduction, as compared to Increlex [4]: 19.4 fold
- Average EC50 (PathHunter IGF1R bioassay) [5]: 7.7 nM
- Average fold reduction, as compare to Increlex [5]: 16.5 fold
- EC50, CBA#1 (PathHunter IGF1R bioassay) [5]: 5.96 nM
- EC50, CBA#2 (PathHunter IGF1R bioassay) [5]: 7.83 nM
- EC50, CBA#3 (PathHunter IGF1R bioassay) [5]: 8.17 nM
- EC50, CBA#5 (PathHunter IGF1R bioassay) [5]: 8.82 nM
- Kd [6]: 3.42 nM
- Kd [7]: 3.63 nM
B1: MOD-1301-4 (CTP-IGF1-CTPx2) (ligand)
chain: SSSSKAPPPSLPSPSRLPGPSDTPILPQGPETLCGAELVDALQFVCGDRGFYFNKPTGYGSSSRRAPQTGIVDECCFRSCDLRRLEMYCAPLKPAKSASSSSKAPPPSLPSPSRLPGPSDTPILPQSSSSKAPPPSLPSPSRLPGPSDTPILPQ
notes: Active (mature) protein without the hGH signal peptide; also called V4

- Kd [1]: 5.77 nM
- Kd [2]: 2.8 nM
- times less affinity than Increlex [3]: ~21 fold
- Fold reduction, as compared to Increlex [4]: 22.1 fold
- Average EC50 (PathHunter IGF1R bioassay) [5]: 9.76 nM
- Average fold reduction, as compare to Increlex [5]: 20.9 fold
- EC50, CBA#1 (PathHunter IGF1R bioassay) [5]: 6.98 nM
- EC50, CBA#2 (PathHunter IGF1R bioassay) [5]: 7.09 nM
- EC50, CBA#3 (PathHunter IGF1R bioassay) [5]: 9.37 nM
- EC50, CBA#5 (PathHunter IGF1R bioassay) [5]: 15.6 nM
- Kd [6]: 3.84 nM
- Kd [7]: 4.14 nM
B3: MOD-1301-5 (CTPx2-IGF1-CTPx4) (ligand)
chain: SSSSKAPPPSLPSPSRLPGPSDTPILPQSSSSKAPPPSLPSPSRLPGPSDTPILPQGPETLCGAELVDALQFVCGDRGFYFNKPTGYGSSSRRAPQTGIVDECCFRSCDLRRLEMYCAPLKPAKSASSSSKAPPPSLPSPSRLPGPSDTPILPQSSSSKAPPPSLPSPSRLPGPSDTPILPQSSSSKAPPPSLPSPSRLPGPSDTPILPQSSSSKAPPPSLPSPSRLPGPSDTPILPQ
notes: Active (mature) protein without the hGH signal peptide; also called V5

Source: patent US20210008172A1 (OPKO BIOLOGICS, published 2021)
